In all, about 33,000 sequences were measured (“E-score (-0.5 to 0.5)”: median about -0.013, highest 2% from about 0.3 on). This is one part of the list.

This test deals with T1, Msn1 (UniProt P22148).
T1 sequence: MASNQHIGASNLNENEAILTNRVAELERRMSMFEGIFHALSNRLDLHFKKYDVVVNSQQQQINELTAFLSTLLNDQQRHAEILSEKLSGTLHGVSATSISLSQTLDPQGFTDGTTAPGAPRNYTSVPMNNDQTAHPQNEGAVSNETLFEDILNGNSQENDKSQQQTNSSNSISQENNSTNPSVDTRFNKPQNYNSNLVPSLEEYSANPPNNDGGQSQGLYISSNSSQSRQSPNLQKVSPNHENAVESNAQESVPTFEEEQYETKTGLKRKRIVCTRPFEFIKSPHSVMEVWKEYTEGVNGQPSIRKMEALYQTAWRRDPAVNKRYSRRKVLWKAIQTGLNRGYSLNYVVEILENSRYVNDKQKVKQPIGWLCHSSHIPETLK
Briefly: PBM E-score (8-mer binding enrichment) (E-score (-0.5 to 0.5)); higher = stronger / more preferred TF binding; most listed sequences are background and not binding sites. The conditions noted are these: protein concentration: 200 nM; construct: GST-full length. The essentials:
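Masliner-normalised scans of fluorescent anti-GST signal were the basis for scoring. That signal came from GST-tagged yeast transcription factors applied at about 100-200 nM to double-stranded universal all-10-mer Agilent arrays on fresh or once-stripped slides. Each ungapped eight-base word, pooled with its reverse complement, received an E-score from the Universal PBM Analysis Suite.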
Regarding TAGTGGGA, the “PBM E-score” value is -0.158. As to ACCCGGGG, the “PBM E-score” value is -0.249. The result for CCGAGCCA reads 0.0402; that for AAGTGATC, 0.108. Take CTCGGTCA: the “PBM E-score” value worked out at 0.00363.

In the case of TCAGGAAA, the “PBM E-score” value turned out to be 0.0903. On to ATATTGGA, for which the “PBM E-score” value was 0.0652. In the case of AATTTGCT, the “PBM E-score” value came out at 0.0832.

For the sequence CAAATGCA, the “PBM E-score” value came out at 0.0952. Turning to GCAAATGA, the “PBM E-score” value was -0.0127. Regarding CGAAAGAG, the “PBM E-score” value stood at 0.00829. Turning to TAGTATGA, the “PBM E-score” value amounted to 0.183. With AGCGAAAG, the “PBM E-score” value worked out at 0.00846. The result for CATTATCA reads 0.143; that for ACCGCTAA, 0.0303. For the sequence AGACAATA, the “PBM E-score” value was 0.428. In the case of GCGAGAGC, the “PBM E-score” value is -0.149. Turning to AATTTAAT, the “PBM E-score” value stood at 0.298.

Regarding GCTCGACA, the “PBM E-score” value was -0.0538. With CAGGCCTC, the “PBM E-score” value was -0.237. The result for CGAAACAC reads 0.181. As for GACTTCCC, the “PBM E-score” value is -0.149.

In the case of AACAAGGC, the “PBM E-score” value is -0.114.

As for CACGATTC, the “PBM E-score” value stood at 0.103. Regarding AACTTGCT, the “PBM E-score” value was -0.128. TATTCCGA: the “PBM E-score” value was 0.273. Turning to CGCATAAC, the “PBM E-score” value came to 0.0227. As to ATTACGTC, the “PBM E-score” value was determined as 0.133.

In the case of TACTGCAA, the “PBM E-score” value amounted to 0.0399. Turning to ACCTGGAG, the “PBM E-score” value is -0.089.

With TCCAGCCA, the “PBM E-score” value was -0.0925. On to ACCCTTGG, for which the “PBM E-score” value was -0.239. With AGCAAGGC, the “PBM E-score” value was -0.223. As to CCAATCGC, the “PBM E-score” value was -0.0565. As for TACAGTGA, the “PBM E-score” value was determined as 0.119. The same measure for TGCAGGCA: -0.198; for GGCATAAC: -0.0456. Consider AACATGGG, for which the “PBM E-score” value worked out at 0.0653.

On to CTGTCGGA, for which the “PBM E-score” value was 0.0643.

With ACACGTGG, the “PBM E-score” value was 0.114.

For the sequence AGATGCTA, the “PBM E-score” value was -0.125. The result for AAATGCAT reads 0.0939; that for ATGACAGG, 0.105. As to ACAAGTCA, the “PBM E-score” value is 0.0996. The result for CCGTCTCG reads -0.0947. For the sequence GTGCCGGA, the “PBM E-score” value is 0.191.

Regarding CTAGAGGC, the “PBM E-score” value was -0.193. Take AGTGACGC: the “PBM E-score” value was -0.114.

Regarding AATATGAT, the “PBM E-score” value was 0.0991. Turning to GTTCCTGA, the “PBM E-score” value was -0.147. As for CGCTTTTA, the “PBM E-score” value worked out at 0.168.

As to ATCACGGC, the “PBM E-score” value was found to be 0.0306. The result for AGTGCAGC reads -0.0149; that for ACGATCGA, 0.118. Take AACCACTA: the “PBM E-score” value is -0.0982.

As for GCTTAACC, the “PBM E-score” value was -0.0324.

GAGTAAGA: the “PBM E-score” value is 0.115. The same measure for GGACGGGA: -0.193; for CGCAGTAG: -0.21. In the case of CATGAGCC, the “PBM E-score” value is -0.0374.

On to AATCACTA, for which the “PBM E-score” value amounted to 0.0532. The result for ATTGGGGA reads -0.137. On to TGCAGCCA, for which the “PBM E-score” value is -0.0919. For the sequence CTAGTGAC, the “PBM E-score” value is 0.0959. Consider AGCCTTCA, for which the “PBM E-score” value was -0.118. Regarding CATTGCAA, the “PBM E-score” value was -0.0386.

TAAAGCAA: the “PBM E-score” value turned out to be 0.141. Consider CTCGCCCA, for which the “PBM E-score” value was -0.0117. On to AGGACGAA, for which the “PBM E-score” value amounted to 0.256. For AATGCCGT, the “PBM E-score” value was 0.0976. The same measure for CGCATCGA: 0.0795; for AACACCTC: -0.0786. Consider TATCACCA, for which the “PBM E-score” value was -0.0358. The same measure for AGCCAGCT: -0.0847. For GGTACAAA, the “PBM E-score” value was 0.456. Turning to CTCGATGA, the “PBM E-score” value was -0.0098.

Consider AATTGCCA, for which the “PBM E-score” value is -0.0362. Regarding CCATAGCG, the “PBM E-score” value is -0.127.

For the sequence ATTGTCCG, the “PBM E-score” value was 0.468.

AAGGGCTG: the “PBM E-score” value was -0.254. The same measure for CCGATATC: 0.0924; for GAAGATGC: -0.128; for AATACAAA: 0.228. The result for ACGCGGTG reads -0.197; that for CAGACAGG, 0.0581; that for CCTATACC, -0.176. For the sequence AGATTGGA, the “PBM E-score” value was found to be 0.0703. The result for GGCGATCA reads -0.221; that for CGCCAAAC, -0.146.

In the case of GAACCTAA, the “PBM E-score” value is -0.172. Regarding GGAGGGAA, the “PBM E-score” value was -0.248.

Take GGGCTCGA: the “PBM E-score” value was -0.324.

For AAAATTGG, the “PBM E-score” value was determined as 0.00283. As to CCGTTGTC, the “PBM E-score” value stood at 0.304. Take ACGGCTAT: the “PBM E-score” value was -0.0474.

For CACGGCGC, the “PBM E-score” value was 0.0716. On to CTGGTTGC, for which the “PBM E-score” value turned out to be 0.0297.

As for CAGTAGAC, the “PBM E-score” value turned out to be 0.168. Consider GAATTAAC, for which the “PBM E-score” value came to 0.0536. As to GGTGGTTA, the “PBM E-score” value was -0.103.

As for AACACAGA, the “PBM E-score” value is -0.0167. For CCCCCGAA, the “PBM E-score” value is -0.137.

Turning to GAATCTAA, the “PBM E-score” value is -0.0421. The same measure for CATCCTAC: -0.227; for AGCCACTG: -0.0328.

With AAAGGAAT, the “PBM E-score” value worked out at 0.0833.

In the case of AGCTGGCC, the “PBM E-score” value is -0.0908. Take GCGATTTA: the “PBM E-score” value is -0.0258.

With GATAGGGC, the “PBM E-score” value was -0.237. In the case of GGTTGCAC, the “PBM E-score” value is -0.195.

Values taken from the supplement of paper PMC3334620.
